In all, about 44,000 compounds went through this assay and about 340 (0.77%) were called active. Roughly 5% stayed inconclusive and do not appear here. Calls follow the shape of the dose curve; as a rule, active = well fitted inhibition curve with a large enough effect; inconclusive = small, poorly fitted or top-dose-only effect; inactive = flat fitted curve, though single readings scatter. The list shows a part of the results.
Potency is read from the fitted curve at half-maximal effect.

The nature of the test: Acumen qHTS Assay for Inhibitors of the mTORC1 Signaling Pathway in MEF (Tsc2-/-, p53-/-) Cells: Sytravon. Also: nearly all actives have a fitted effect of over 50% in size.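 As to activity change, negative = inhibition: plate controls were DMSO for no effect and rapamycin for full effect.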 The conditions noted are these: phospho-rpS6 immunofluorescence/PI, 24 h; series mostly up to 38.3 µM; activity change, negative = inhibition: at the top concentration. In a few lines: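 Immunofluorescence of rpS6 phosphorylation in Tsc2-/-, p53-/- MEFs after 24 h compound exposure, normalized to propidium iodide signal. Activity is expressed as % positive cells, thresholded with 7.5 nM rapamycin.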
Background: qHTS replaces the single test concentration by a dilution series.
Regarding `O=C(CSc1nc2c(c(=O)[nH]1)CCC2)Nc1cccc(O)c1`, the “activity change, negative = inhibition” value was inactive: 1.87%.
Still for that read-out and setting: the result for `CC(NC(=O)c1cccc(Nc2nc3ccccc3n3nnnc23)c1)c1ccccc1` (centres undefined) reads inactive: -15.1%; that for `COc1ccc(OC)c(NC(=O)Nc2cccc(OCc3cc(=O)n4cc(C)ccc4n3)c2)c1`, inactive: 2.05%; that for `CCn1c(=O)c2sccc2n2c(CCCC(=O)Nc3ccc(C)cc3)nnc12`, inactive: -3.43%.
Same read-out and setting: the result for `Cc1ccc(N2CCN(c3ncnc4onc(-c5ccc(F)cc5)c34)CC2)c(C)c1` reads inactive: 1.96%.
With `COc1cc(NC(=O)c2c(C)nn(-c3ccc(F)cc3)c2-n2cccc2)cc(OC)c1`, the “activity change, negative = inhibition” value was inactive: 2.32%.
Same read-out and setting: with `Cc1ccc(S(=O)(=O)NCCc2nnc3ccc(SCc4cccc(F)c4)nn23)cc1` the figure was inactive: -2.71%; with `COc1ccc(-c2nc3ccccc3o2)cc1NC(=O)c1ccc(-c2ccc(C)c(Cl)c2)o1`, inactive: 3.09%; with `COc1ccc(CC(=O)Nc2c(C(=O)N3CCN(c4ccccc4F)CC3)oc3ccccc23)cc1OC`, inactive: 1.94%.
As to `CCN(C(=O)c1cc2c(=O)oc3ccccc3c2s1)c1cccc(C(F)(F)F)c1`, the “activity change, negative = inhibition” value is inactive: 0%.
For the molecule `CCOc1ccc(OCC)c(Nc2nc3ccccc3n3nnnc23)c1`, the “activity change, negative = inhibition” value was inactive: -5.48%.
Regarding `O=C1C2=C(Nc3ccccc3SC2c2ccc(C(F)(F)F)cc2)c2ccccc21` (centres undefined), the “activity change, negative = inhibition” value is inactive: -14.9%.
Still for that read-out and setting: the result for `O=C(CN1C=NS(=O)(=O)c2ccccc21)Nc1ccc(Br)cc1` reads inactive: -5.7%; that for `Cc1ccccc1CNC(=O)CCCn1ncn2c(cc3occc32)c1=O`, inactive: -12%; that for `COc1ccc(NC(=O)CSC2=Nc3ccccc3C3=NC(Cc4ccccc4)C(=O)N23)cc1` (centres undefined), inactive: 14.1%.
On the same count and under the same terms, the result for `COc1ccccc1Nc1ncc2c(n1)CCN(CC(C)C)C2` reads inactive: 6.07%; that for `COCCNC(=O)c1ccc2c(c1)NC(=O)C(CS(=O)(=O)Cc1ccc(F)cc1Cl)N2` (centres undefined), inactive: -3.85%; that for `COc1ccc(NC(=O)c2c(NC(=O)c3cccc(C)c3)sc3c2CCC3)cc1`, inactive: -9.71%.
Same read-out and setting: with `COc1cccc(CNC(=O)c2ccc3oc(=O)n(Cc4ccccc4)c3c2)c1` the figure was inactive: 0.957%.
On to `Cc1ccccc1CN1C(=O)c2ccccc2Sc2ccc(C(=O)N3CCOCC3)cc21`, for which the “activity change, negative = inhibition” value is inactive: 6.64%.
With `COc1ccccc1-c1c(C(F)(F)F)oc2c(CN3CCCCC3C)c(O)ccc2c1=O` (centres undefined), the “activity change, negative = inhibition” value is inactive: -15%.
For `CC(=O)c1[nH]c(C)c(C(=O)NCc2ccc(Cl)cc2)c1C`, the “activity change, negative = inhibition” value was inactive: -10.1%.
In the case of `COc1cc(C)c(S(=O)(=O)Nc2cccc(-c3ccc(N4CCCC4)nn3)c2)cc1C`, the “activity change, negative = inhibition” value was inactive: 1.5%.
Same read-out and setting: the result for `Cc1cc(F)ccc1NC(=O)CCS(=O)(=O)c1cccc2nsnc12` reads inactive: -6.14%.
Same read-out and setting: the result for `Cc1cccc(-c2nc(-c3ccc4c(c3)[nH]c(=O)n4C)no2)c1` reads inactive: -0.135%.
`CCCN(CCC)CCCNC(=O)c1cc2c(-c3ccc(Cl)cc3)nn(C)c2s1`: the Potency was active: 13.1 µM.
On to `Cc1cccc(NC(=O)CSc2nc3c(oc4ccccc43)c(=O)n2-c2ccccc2)c1C`, for which the “activity change, negative = inhibition” value is inactive: -2.31%.
`Cc1ccc(S(=O)(=O)N2CCC(C(=O)Nc3cc(C)ccc3C)CC2)cc1`: the “activity change, negative = inhibition” value was inactive: 3.82%.
`COc1cc(-c2cc3n(C)c(C)c(CCC(=O)Nc4ccc(F)cc4)c(=O)n3n2)cc(OC)c1OC`: the “activity change, negative = inhibition” value is inactive: 0.123%.
For `COc1ccc(Cn2c(=O)c3oc4ccccc4c3n(Cc3ccccc3)c2=O)cc1`, the “activity change, negative = inhibition” value was inactive: -5.73%.
On the same count and under the same terms, with `Cc1ccc(OCCSc2nc(-c3cccs3)nc3cc(=O)[nH]n23)cc1Cl` the figure was inactive: 4.84%; with `CCOC(=O)c1[nH]c(C)c(CCC(=O)NCc2cccc(Cl)c2)c1C`, inactive: 4.72%.
Still for that read-out and setting: with `O=C(CSc1c2c(nc3ccccc13)CCC2)Nc1ccc(F)cc1F` the figure was inactive: -11.6%; with `COc1ccccc1CCNC(=O)Cc1c(C)c2c(O)cc(C)cc2oc1=O`, inactive: -14.7%.
On the same count and under the same terms, the result for `COC(=O)c1ccc([C@@H]2Nc3c(cccc3C(F)(F)F)[C@@H]3C=CC[C@@H]32)cc1` reads inactive: -6.77%; that for `Cc1ccc(NC(=O)CSc2nc3c(c(=O)[nH]2)CN(Cc2ccccc2)CC3)cc1Cl`, inactive: 2.22%; that for `CC(=O)N1c2ccccc2C(=O)C1N1CCN(c2cccc(C)c2C)CC1` (centres undefined), inactive: -6.11%.
As for `Nc1nc2nc(-c3ccc(Cl)cc3)cc(C(F)(F)F)n2n1`, the “activity change, negative = inhibition” value was inactive: -2.5%.
The same measure, in the same setting: with `COC(=O)c1c(NC(=O)C2c3ccccc3Oc3ccccc32)sc2c1CCC(C)C2` (centres undefined) the figure was inactive: -3.04%; with `Nc1nonc1-c1nc2ccccc2n1Cc1ccc(Br)cc1`, inactive: 3.65%; with `CC(CNC(=O)c1sc2ncccc2c1-n1cccc1)c1ccccc1` (centres undefined), inactive: 0.731%.
Take `CC(C)(Oc1ccc(Cl)cc1)C(=O)Nc1cccc(-c2cn3cccnc3n2)c1`: the “activity change, negative = inhibition” value was inactive: 0.534%.
Regarding `Cc1nc2scc(C)n2c(=O)c1S(=O)(=O)Nc1ccc(N2CCN(C(=O)C(C)C)CC2)cc1`, the “activity change, negative = inhibition” value was inactive: -9.89%.
Still for that read-out and setting: the result for `Cc1ccc(NC(=O)C2=CC(c3cccs3)=NS(=O)(=O)N2C)cc1` reads inactive: 0.733%; that for `O=C(CC(c1cccs1)N1Cc2ccccc2C1=O)Nc1ccccc1F` (centres undefined), inactive: -5.97%; that for `Cc1ccc(CSC2=Nc3ccccc3C3=NC(CCC(=O)NCCc4ccccc4)C(=O)N23)cc1` (centres undefined), inactive: 0.0741%.
On to `COC(=O)c1cc2occc2n1Cc1ccc(F)cc1Cl`, for which the “activity change, negative = inhibition” value is inactive: -5.67%.
The same measure, in the same setting: the result for `Cc1ccc(NC(=O)CN2C(=O)CSc3ccc(S(=O)(=O)N(C)C)cc32)cc1C` reads inactive: -16.4%; that for `Cc1ccc(-c2nn(CCC(=O)Nc3ccc(Cl)c(Cl)c3)c(=O)c3ccccc23)cc1`, inactive: 3.43%.
